Values of other authors, collected in publication PMC12418948, “Intranasal Administration of KCNN2 Blocking Peptide Improves Deficits in Cognitive Flexibility in Mouse Model of Fetal Alcohol Spectrum Disorders” (International Journal of Neuropsychopharmacology, 2025).
No end group written: not given here.

Settings: intrathecal analgesic; cited from earlier work

Ziconotide (CKGKGAKCSRLMYDCCTGSCRSGKC; not fully specified (C-terminus, bridges); cysteine pairing not given here; UniProt P05484 46-70, looked up)
safety as a drug: can safely be used as a drug
